According to PubChem BioAssay AID488969 (Vanderbilt High Throughput Screening Facility, 2010):
Whole data set: some 110,000 compounds, median “z-score” near -0.1, cut for the highest 2% near 2. The list shows a part of the results.

Target: Metabotropic glutamate receptor 8 (Rattus norvegicus) (UniProt P70579)
Experiment: mGluR8 Gi/Go-coupled signaling modulation – cell-based, rat, thallium flux, HTS, primary screen (AID 488969)
Conditions: HEK293 rat mGluR8, GIRK (G protein-gated inwardly rectifying potassium channel) thallium flux, FluoZin2; at 10 µM; stronger effect = higher value; submaximal glutamate (EC20) added with thallium

Sequence of UniProt P70579 (P70579 whole entry, looked up): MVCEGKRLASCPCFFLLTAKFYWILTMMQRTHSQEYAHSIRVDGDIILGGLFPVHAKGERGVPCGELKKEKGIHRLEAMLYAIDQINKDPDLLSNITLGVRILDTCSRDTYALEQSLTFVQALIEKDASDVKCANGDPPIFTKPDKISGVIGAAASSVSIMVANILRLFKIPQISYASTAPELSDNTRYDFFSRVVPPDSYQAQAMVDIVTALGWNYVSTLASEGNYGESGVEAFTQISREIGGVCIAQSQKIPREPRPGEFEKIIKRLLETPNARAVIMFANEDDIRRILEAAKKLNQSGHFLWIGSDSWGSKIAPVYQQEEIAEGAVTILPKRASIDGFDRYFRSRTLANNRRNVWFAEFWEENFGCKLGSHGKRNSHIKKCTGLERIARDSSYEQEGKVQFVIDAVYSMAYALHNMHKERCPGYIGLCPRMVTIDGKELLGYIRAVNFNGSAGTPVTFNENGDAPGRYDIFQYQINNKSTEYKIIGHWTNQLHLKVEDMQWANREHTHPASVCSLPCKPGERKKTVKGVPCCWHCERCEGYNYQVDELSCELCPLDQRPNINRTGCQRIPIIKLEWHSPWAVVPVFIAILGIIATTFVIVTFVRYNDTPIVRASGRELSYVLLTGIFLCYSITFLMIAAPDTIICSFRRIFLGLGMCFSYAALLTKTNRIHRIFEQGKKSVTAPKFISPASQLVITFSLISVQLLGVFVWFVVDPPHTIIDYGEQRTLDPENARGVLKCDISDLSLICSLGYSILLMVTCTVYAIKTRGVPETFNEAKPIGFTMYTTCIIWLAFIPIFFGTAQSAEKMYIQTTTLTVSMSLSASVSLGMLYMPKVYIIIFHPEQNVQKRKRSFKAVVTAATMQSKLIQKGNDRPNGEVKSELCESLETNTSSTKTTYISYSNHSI

SMILES	z-score
CC1CCCC(C)N1C(=O)CN1C(=O)C(C)(C)Oc2ccc(C(=O)NC3CCCC3)cc21 (stereo not given)	-0.774
CCS(=O)(=O)n1nc(-c2ccco2)nc1SC	-0.348
C=CCc1cccc2cc(C(=O)Nc3ccc(F)cc3)c(=O)oc12	-0.8
CC(C)[C@H](N)c1nnc(SCc2ccc(Cl)cc2)o1	0.207
O=C(Nc1nc(-c2ccccc2)cs1)C1CCCCN1S(=O)(=O)c1ccccc1 (stereo not given)	1.16
CN(C)S(=O)(=O)c1ccc(N2CCOCC2)c(C(=O)O)c1	0.216
Cn1nc(C(F)(F)F)c(C(=O)Nc2ccc(F)cc2F)c1Oc1cccc(Cl)c1	-0.375
Cc1cc(C)nc(NS(=O)(=O)c2ccc(NC(=O)c3ccc(S(=O)(=O)N4CC(C)OC(C)C4)cc3)cc2)n1 (stereo not given)	-0.605
CCOC(=O)/C(C#N)=C\c1c(OCC)n(CC)c2ccccc12	-0.745
O=C(NCC1CCCO1)C1CCCN(Cc2cnn(-c3ccccc3)c2-n2cccc2)C1 (stereo not given)	-0.0478
CCOC(=O)CNC(=O)c1c(C)nn(-c2ccccc2)c1Cl	-0.3
Cc1ccc2oc(=O)c3cnn(CC(=O)NC4CCC(C)CC4)c3c2c1 (stereo not given)	-2.45
O=C(Nc1ccc(Oc2ccccc2)cc1)c1ccco1	0.941
CCCCOc1ccc(C(=O)N2CCCC2)cc1	-0.35
C=CCc1ccc(OCCOCCNCCCC)c(OC)c1	1.2
Cc1ccc(C(=O)N/C(=C\c2cccs2)C(=O)NCCCn2ccnc2)cc1	-0.313
O=C1CSC(c2ccccc2)N1c1nnc(C23CC4CC(CC(C4)C2)C3)s1 (stereo not given)	-0.254
Cc1ccc(NC(=O)CSc2nnc(CCCCCNC(=O)OC(C)(C)C)o2)c(C)c1	0.493
CC(C)C(NC(=O)C(c1ccccc1)c1ccccc1)c1nc2ccccc2[nH]1 (stereo not given)	0.0682
COCCn1c(C)cc(C(=O)CSc2nnc3ccccn23)c1C	0.206
O=C1/C(=C\Nc2ccc(Cl)cc2)CCN1c1ncccn1	0.111
CCOc1ccccc1NC(=O)COC(=O)c1cccc(-c2ccc(OC(C)=O)cc2)c1	0.391
O=C1c2ccccc2C(=O)N1CCCN1CCN(CCCN2C(=O)c3ccccc3C2=O)CC1	0.393
COc1ccc(OC)c(-c2csc(NC(=O)c3ccc(OCC4CCCO4)cc3)n2)c1 (stereo not given)	-0.558
CCOc1ccccc1NC(=O)CCC(=O)Nc1ccccc1OCC	-0.795
Cc1nn(-c2ccccc2)c(C)c1NC(=O)COc1ccc(Br)cc1Cl	-0.186
Nc1cc(Cl)nc(N/N=C/c2ccccc2[N+](=O)[O-])n1	1.31
NC(=O)COc1ccccc1/C=C1/SC(=O)N(CC(=O)N2CCc3ccccc3C2)C1=O	-0.526
CC(=O)Nc1ccccc1-c1ccc(C)o1	-0.135
Cc1cc(C)c(C)c(OC(=O)c2sc(Cl)nc2C)c1	-0.103
